Test results published in article PMC4336329 (PLoS ONE, 2015).
The whole screen tested about 310,000 compounds, of which about 14,000 (4.5%) showed an effect of 50% or more. Effects have a minus sign here. The list shows a part of the results.

Biological target: human ether-à-go-go-related gene (hERG) potassium channel (human, UniProt Q12809)
Test: primary screen, population patch clamp on CHO cells stably expressing hERG
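Further: peak tail current of the secondary pulse compared with the same well before compound.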

Sequence of human ether-à-go-go-related gene (hERG) potassium channel (Q12809 whole entry, looked up): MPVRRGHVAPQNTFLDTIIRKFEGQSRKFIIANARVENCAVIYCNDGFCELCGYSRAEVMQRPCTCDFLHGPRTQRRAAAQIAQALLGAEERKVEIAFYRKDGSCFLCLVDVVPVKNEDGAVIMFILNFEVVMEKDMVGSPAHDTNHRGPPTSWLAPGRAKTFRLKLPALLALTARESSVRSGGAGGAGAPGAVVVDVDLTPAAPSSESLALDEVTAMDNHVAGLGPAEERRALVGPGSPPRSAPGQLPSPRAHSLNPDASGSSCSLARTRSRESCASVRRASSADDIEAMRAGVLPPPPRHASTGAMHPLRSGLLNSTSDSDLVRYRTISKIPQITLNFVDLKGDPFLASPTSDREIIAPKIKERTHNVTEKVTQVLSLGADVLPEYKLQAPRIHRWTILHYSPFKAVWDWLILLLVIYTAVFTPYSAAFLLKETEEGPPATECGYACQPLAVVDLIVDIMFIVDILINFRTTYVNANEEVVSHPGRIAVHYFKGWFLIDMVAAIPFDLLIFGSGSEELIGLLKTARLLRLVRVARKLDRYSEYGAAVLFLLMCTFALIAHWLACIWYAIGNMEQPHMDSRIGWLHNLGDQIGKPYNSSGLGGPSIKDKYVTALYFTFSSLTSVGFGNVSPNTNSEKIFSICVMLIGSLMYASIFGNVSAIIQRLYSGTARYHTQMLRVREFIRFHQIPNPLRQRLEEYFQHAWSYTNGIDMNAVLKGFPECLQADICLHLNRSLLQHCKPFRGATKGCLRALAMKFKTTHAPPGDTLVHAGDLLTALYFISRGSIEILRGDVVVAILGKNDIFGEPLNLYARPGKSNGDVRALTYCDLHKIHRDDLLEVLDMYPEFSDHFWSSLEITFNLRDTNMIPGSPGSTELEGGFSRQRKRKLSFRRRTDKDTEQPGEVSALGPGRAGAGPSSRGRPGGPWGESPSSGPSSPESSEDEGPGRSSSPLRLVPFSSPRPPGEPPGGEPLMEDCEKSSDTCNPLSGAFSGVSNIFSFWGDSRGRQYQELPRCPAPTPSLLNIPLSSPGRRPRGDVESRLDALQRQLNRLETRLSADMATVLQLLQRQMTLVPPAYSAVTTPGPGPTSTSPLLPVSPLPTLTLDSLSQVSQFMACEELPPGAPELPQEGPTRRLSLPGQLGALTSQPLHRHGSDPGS

| SMILES | hERG current change (%, negative = inhibition) at 10uM |
| --- | --- |
| S=C(NCCc1ccccc1)NC1CC2CCC(C1)N2Cc1ccccc1 (stereo not drawn) | -35.8% |
| Cc1[nH]c2ccccc2c1/C=N/NC(=O)CNC(=O)Cc1ccccc1 | 15.5% |
| CCC1Oc2ccc(C)cc2N(CC(=O)NCCN2C(C)CCCC2C)C1=O (stereo not drawn) | -9.64% |
| Cc1ccc(S(=O)(=O)NCCC(=O)Nc2ccc(Cl)c(Cl)c2)cc1C | 11.9% |
| CC(C)CN1CCN(Cc2ccc(C(F)(F)F)cc2)CC1CCO (stereo not drawn) | -56.6% |
| CCOC(=O)Nc1ccc(NCc2ccc(F)cc2)nc1N.O=C([O-])/C=C\C(=O)[O-] | -19.9% |
| Cc1cc(Nc2cc(C)on2)n2ncnc2n1 | -1.14% |
| Cc1nc(C)c(C(=O)NCCC(c2ccccc2)c2ccccc2)o1 | 4.74% |
| CC(C)(C)c1ccc(CSc2nnc(-c3ccccn3)n2Cc2ccco2)cc1 | -14.7% |
| COC(=O)c1c(C(=O)OC)c2cc(C)ccn2c1Cl | -24.9% |
| CCOC(=O)C1(Cc2cccc(Cl)c2)CCCN(C(=O)C(C)(C)C)C1 (stereo not drawn) | 9.04% |
| CCCCc1nc2sc3c(c2c(=O)[nH]1)CCC3 | 10.3% |
| COc1ccc(C2(C)NC(=O)N(CC(=O)Nc3ccc4c(c3)CCC4)C2=O)cc1OC (stereo not drawn) | -8.71% |
| CC(CCc1ccco1)NC(=O)CCc1nnc2ccc(NCc3ccc(Cl)cc3)nn12 (stereo not drawn) | -15.3% |
| COc1ccc(NC2=NC(=S)N(c3ccc(C)cc3)C23CCCCC3)cc1 | 15.3% |
| COc1ccc(-n2ncc3c(N4CCC(C)CC4)ncnc32)cc1 | -12.5% |
| CCCCCCn1c(=O)[nH]c2c(c1=O)CCC2 | -3.06% |
| CCOC(=O)CNC(=O)N1CCCC(C(=O)c2ccc3c(c2)OCO3)C1 (stereo not drawn) | 11.1% |
| CCN(c1ccccc1)S(=O)(=O)c1cc2c3c(c1)C(C)C(=O)N3CCC2 (stereo not drawn) | -34.7% |

| SMILES | hERG current change (%, negative = inhibition) at 10uM |
| --- | --- |
| Cc1ccc2c(c1)C(c1ccncc1)=NNC(c1ccc(F)cc1)=N2 | -0.32% |
| Cc1ccc(C(=O)N/N=C/c2ccc(-c3ccccc3[N+](=O)[O-])o2)cn1 | -32.5% |
| CC(C)OCCCn1c(SC(C)C(=O)NCC2CCCO2)nc2cc(Cl)ccc2c1=O (stereo not drawn) | -20.6% |
| O=S(=O)(NCC1CCCO1)c1ccc(Br)cc1 (stereo not drawn) | 8.84% |
| Cc1ccc(S(=O)(=O)N2CCOCC2)cc1NC(=O)CNCC1CCCCC1.O=C(O)C(=O)O | -21.1% |
| CC1(C)Cc2c(sc3ncnc(NN)c23)CO1 | -5.74% |
| Cc1ccc(NC(=O)CSc2ccc(-c3ccccn3)nn2)c(C)c1 | 10.1% |
| CSc1ncc(CN2CCCC(C(=O)c3cccc(Cl)c3)C2)cn1 (stereo not drawn) | -47.1% |
| CC1CC(OC(=O)c2ccccc2)(c2ccccc2)C(C)CN1C (stereo not drawn) | -8.66% |
| CCOC(=O)c1c(NC(=O)c2ccoc2C)sc2c1CCC2 | 9.61% |
| Cc1nn(-c2ccc(N3CCOCC3)nn2)c(C)c1CCC(=O)Nc1ccc(F)cc1 | -9.57% |
| FC(F)(F)c1cccc(Cn2c3[n+](c4ccc(C(F)(F)F)cc42)CCCCC3)c1.[Cl-] | -17.6% |
| COC(=O)C1=C(O)/C(=C\c2ccc(CNC(=O)C(=O)Nc3ccc(C)cc3)o2)N=C1C | 20.5% |
| OC(C#CCCN1CCCCC1)(c1ccccc1)C1CCCCC1 (stereo not drawn) | -46.3% |
| CCn1c(N2CCN(C(=S)Nc3ccc(OC)cc3)CC2)nc2ccccc21 | -68.3% |
| COc1ccc(C2NC(=O)c3ccccc3O2)c(OC)c1OC (stereo not drawn) | 6.22% |
| OC(COc1ccc2cc(Br)ccc2c1)CN1CCN(c2ccccn2)CC1 (stereo not drawn) | 1.85% |
| O=C(c1cc2cc(Br)ccc2s1)N1CCOCC1 | -21.7% |
| Cc1cc(C)cc(NC(=S)N2CCC(N(C)CC3CCCO3)CC2)c1 (stereo not drawn) | -52% |

| SMILES | hERG current change (%, negative = inhibition) at 10uM |
| --- | --- |
| O=C(NCc1ccco1)c1cccc(NC(=O)c2ccco2)c1 | -10.3% |
| Cc1ccc(C(=O)NCc2ccco2)cc1S(=O)(=O)N1CCOCC1 | 0.668% |
| Cc1cc(C)cc(OCC(=O)OCC(=O)N(CC(C)C)c2c(N)n(Cc3ccccc3)c(=O)[nH]c2=O)c1 | -4.75% |
| Cc1ccc(C)c(Nc2ncnc(N)c2[N+](=O)[O-])c1 | 19.4% |
| O=C(NNc1cc(Cl)cc(Cl)c1)c1cccs1 | 6.12% |
| O=c1[nH]c(C2CCCN(S(=O)(=O)c3cccc(F)c3)C2)nc2c1nnn2Cc1ccccc1 (stereo not drawn) | 8.49% |
| CN1CCN(/C(=N\S(=O)(=O)c2ccc(F)cc2)c2ccccc2)CC1 | 7.32% |
| COc1ccc(Cc2nnc(NS(C)(=O)=O)s2)cc1 | 3.9% |
| CCN(CCC(=O)Nc1ccc(Br)c(C)c1)Cc1ccccc1.Cl | -36.8% |
| O=C(CNC(=O)c1cccs1)N/N=C/c1ccc(O)cc1O | 6.77% |
| O=C(OCC(=O)N1CCN(C(=O)c2ccco2)CC1)c1ccc(Cl)c(Cl)c1 | -62.9% |
| Cn1cnc([N+](=O)[O-])c1SCCO | 17.1% |
| CC(=O)N1CCN(c2nnc(-c3ccc(C)cc3)c3ccccc23)CC1 | -38.6% |
| Cc1[nH]c2ccccc2c1[C@H]1[C@@H](CC#N)C1(C)C | -8.25% |
| Cc1nnc(SCC(=O)NC2CCCCCC2)n1C | 23.4% |
| CC(=O)c1c(C(C)=O)c(C)n(-c2ccc3ncccc3c2)c1C | 21% |
| O=C1CC2(CCN(C(=O)c3ccc(Br)cc3)CC2)Oc2ccccc21 | -73.5% |
| COCc1nc2sc(C)c(C)c2c(=O)[nH]1 | 6.34% |
| CC(C)C[C@@H](CO)N1CCN(Cc2ccc(O)cc2)CCC1=O | 4.53% |
